Laboratory results reported in PMC4336329 (PLoS ONE, 2015).
Hit rate of the full screen: of about 310,000 compounds, about 2,200 (0.71%) showed an effect of 50% or more. The effect is printed as a negative number. The list shows a part of the results.

Target: human ether-à-go-go-related gene (hERG) potassium channel (human, UniProt Q12809)
Test: primary screen, population patch clamp on CHO cells stably expressing hERG

human ether-à-go-go-related gene (hERG) potassium channel, sequence (Q12809 whole entry, looked up): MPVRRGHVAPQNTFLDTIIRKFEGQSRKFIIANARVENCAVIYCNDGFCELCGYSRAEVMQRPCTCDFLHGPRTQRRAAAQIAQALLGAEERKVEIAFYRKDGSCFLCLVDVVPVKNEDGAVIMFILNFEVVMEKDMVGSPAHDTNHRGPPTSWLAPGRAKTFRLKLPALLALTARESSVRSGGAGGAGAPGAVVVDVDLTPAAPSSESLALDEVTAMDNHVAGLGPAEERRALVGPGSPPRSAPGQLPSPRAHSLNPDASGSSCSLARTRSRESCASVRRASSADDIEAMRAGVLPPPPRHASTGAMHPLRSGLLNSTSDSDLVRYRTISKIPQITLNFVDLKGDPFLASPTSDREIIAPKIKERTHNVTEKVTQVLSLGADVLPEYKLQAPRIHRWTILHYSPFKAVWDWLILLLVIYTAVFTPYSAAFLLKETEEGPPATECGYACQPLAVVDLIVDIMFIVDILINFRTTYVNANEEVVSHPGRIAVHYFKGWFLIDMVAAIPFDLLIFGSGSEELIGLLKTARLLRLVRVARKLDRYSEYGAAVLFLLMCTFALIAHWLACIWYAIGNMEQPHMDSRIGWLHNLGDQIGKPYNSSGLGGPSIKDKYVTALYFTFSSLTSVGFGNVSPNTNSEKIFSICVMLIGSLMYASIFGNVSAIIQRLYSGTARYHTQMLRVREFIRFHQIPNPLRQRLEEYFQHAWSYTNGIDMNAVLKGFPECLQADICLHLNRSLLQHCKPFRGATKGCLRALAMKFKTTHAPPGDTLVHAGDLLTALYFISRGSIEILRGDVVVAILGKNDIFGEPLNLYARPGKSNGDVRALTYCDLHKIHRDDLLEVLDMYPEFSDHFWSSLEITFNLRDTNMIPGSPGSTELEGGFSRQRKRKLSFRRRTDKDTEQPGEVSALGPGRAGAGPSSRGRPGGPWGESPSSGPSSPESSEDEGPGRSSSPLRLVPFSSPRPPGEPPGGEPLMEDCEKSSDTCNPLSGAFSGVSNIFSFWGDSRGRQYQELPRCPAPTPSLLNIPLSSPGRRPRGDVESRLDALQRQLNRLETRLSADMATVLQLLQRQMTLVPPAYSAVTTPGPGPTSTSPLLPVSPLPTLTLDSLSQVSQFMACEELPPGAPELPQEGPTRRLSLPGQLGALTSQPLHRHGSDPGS

Row | Compound | hERG current change (%, negative = inhibition) at 1uM [%]
1 | Cc1cccc(NS(=O)(=O)c2ccc(C(=O)NCC(c3ccco3)N(C)C)cc2)c1C (stereo not drawn) | 3.63
2 | Fc1ccc(NC(=S)N2CCSC2c2cccs2)cc1 (stereo not drawn) | 6.81
3 | COc1ccc(CCN2C(=O)CC(Cc3ccc(C)cc3)C2=O)cc1OC (stereo not drawn) | 5.53
4 | CC(C)(C)c1cc(CN2CCCC(O)C2)c(O)c(C(C)(C)C)c1 (stereo not drawn) | -7.24
5 | N#Cc1ccccc1CN1C(=O)NC2(CCCCCC2)C1=O | 14.3
6 | O=C(Nc1c(-c2cccs2)nc2ccccn12)c1ccc2ccccc2c1 | 12.4
7 | COc1ccc(C(=O)N[C@H](C(=O)NCC2CCCCC2)C(C)C)cc1 | 14.2
8 | O=C(NNc1cccc(Cl)n1)Nc1ccccc1F | 9.11
9 | Cc1cccc(N2CCN(C(=O)c3ccc4nc(N5CCCCC5)sc4c3)CC2)c1C | 8.76
10 | CC1(C)CC(=O)N(c2ccccc2)C1(C)O (stereo not drawn) | 1.25
11 | COc1ccc(Oc2ccccc2C=O)cc1 | 6.5
12 | Cc1nn2c(N)c(-c3ccccc3)cnc2c1-c1ccc(Cl)cc1 | 14.3
13 | Cc1cc(C)n(-c2nc3c(c(=O)n(C)c(=O)n3C)n2C)n1 | 10.8
14 | COc1cc(C(=O)Nc2cccc(C)n2)ccc1OCC(=O)N1CCOCC1 | 3.9
15 | COC(=O)c1sc(N/N=C/c2ccc(C(C)C)cc2)nc1C | 11.9
16 | Cc1ccccc1Nc1nnc(SCC(=O)Nc2ccccc2[N+](=O)[O-])s1 | 12.1
17 | CCS(=O)(=O)N1Cc2ccccc2CC1C(=O)Nc1ccc(OC)cc1OC (stereo not drawn) | 6.08
18 | CCOC(=O)C1=C(c2ccccc2)NC(SCC(=O)Nc2ccccc2C)=C(C#N)C1c1ccco1 (stereo not drawn) | -0.374
19 | Nc1c(C(=O)NCCc2ccccc2)nnn1Cc1ccc(Cl)cc1 | 12.7
20 | COc1ccccc1CNC(=O)CN1C(=O)CSc2ccc(S(=O)(=O)N3CCCC3)cc21 | 11.5
21 | O=C(Cc1ccsc1)Nc1ccc2c(c1)OCO2 | 5.15
22 | CCCCCCCCCCCCOC(=O)C[N+](C)(C)C.[Cl-] | -9.16
23 | CC(C)(C)c1cc(NC(=O)C2CCCO2)no1 (stereo not drawn) | 2.05

Row | Compound | hERG current change (%, negative = inhibition) at 1uM [%]
24 | O=C(NC1CCCCC1)c1ccc(S(=O)(=O)c2ccccc2Cl)c([N+](=O)[O-])c1 | 6.02
25 | CC(C)(C)C1CCc2c(sc(NC(=O)C3CC=CCC3C(=O)O)c2C#N)C1 (stereo not drawn) | 10.9
26 | COc1ccccc1NC(NC(=O)c1cccnc1)C(Cl)(Cl)Cl (stereo not drawn) | -12.5
27 | Cc1[nH]n(C)c(=O)c1C(=O)c1c(-c2c(Cl)cccc2Cl)noc1C | 4
28 | CCOc1ccc(C2CC(c3ccc(F)cc3)n3ncnc3N2)cc1 (stereo not drawn) | 4.85
29 | Cc1nn(CC(=O)NCC2CCCO2)c(=O)c2ccccc12 (stereo not drawn) | 8.43
30 | Cc1cc(S(=O)(=O)N2CCCCC2)ccc1OCC(=O)Nc1ccccc1 | 3.39
31 | COc1cccc(CNC(=O)CCCCCNC(=O)N2CCn3c2nc2ccccc23)c1 | 5.94
32 | CC(NC(=O)C12CC3CC(CC(C3)C1)C2)C(=O)NCCN(C)C.Cl (stereo not drawn) | 3.84
33 | COc1ccc(/C=C(/NC(=O)c2ccc(C)cc2)c2nc3ccccc3[nH]2)cc1OC | 8.94
34 | O=C(O)c1c(-c2ccccc2)nnc2ccccc12 | 14.7
35 | CCN(CC)S(=O)(=O)c1ccc(C)c(NC(=O)CN2CCN(Cc3ccccc3)CC2)c1.Cl | -44.6
36 | N#CC1(NC(=O)CSc2ccccn2)CCCCC1 | 7.24
37 | Cc1ccc(-n2nc3c(N4CCC(C(=O)NCCc5ccccc5C)CC4)nnc(C)c3c2C)cc1 | 6
38 | c1ccc(Oc2ccc(-c3ccn[nH]3)cc2)cc1 | -2.29
39 | O=C(Nc1cccc(Cl)c1)Nc1ccc(Cl)cn1 | 11.3
40 | Cc1ccccc1NC(=O)CSc1nc2ccccc2c(=O)n1C | 7.96
41 | CCc1nn(C(C)C(=O)N2CCN(c3ccc(OC)cc3)CC2)c(=O)c2cc3occc3n12 (stereo not drawn) | -0.509
42 | COc1cc(C(=O)Nc2nnc(C3=COCCO3)o2)cc(OC)c1OC | 20.4
43 | O=C(Cc1ccccc1[N+](=O)[O-])NCc1ccncc1 | 8.8
44 | Cc1cc[n+](CC(=O)c2ccccc2)c2ccccc12.[Br-] | 6.22
45 | O=C(NCCc1csc(-c2cccnc2)n1)c1ccc(Br)o1 | 3.63
46 | COc1ccc(NC(=O)CCCn2c(=O)c3sccc3n(Cc3ccccc3)c2=O)cc1 | 4.05

Row | Compound | hERG current change (%, negative = inhibition) at 1uM [%]
47 | CC(C)Oc1cc(N)c(Cl)cc1Cl | 15.8
48 | CC(=O)c1cccc(NC(=O)c2ccco2)c1 | 13.4
49 | COc1ccc(-n2c(=O)c3ccccc3n(CC(=O)NC3CCCCC3)c2=O)cc1 | 18.3
50 | O=S1(=O)CCOCCCN1Cc1ccccc1 | 7.87
51 | Cc1ccc(NC(=O)CNC(=O)c2cccs2)nc1 | 12.4
52 | CCOC(=O)C1C(=O)NC(c2ccccc2)=NC1c1ccc(C(C)C)cc1 (stereo not drawn) | 1.93
53 | CC1(C)CC(=O)C(C=NCc2ccccn2)=C(O)C1 | 12.6
54 | O=C(CN1CCN(C/C=C/c2ccccc2)CC1)NCc1ccc(Cl)cc1 | -72.5
55 | COC(=O)Cn1c(=NC(=O)C(C)(C)C)sc2c(C)cc(C)cc21 | 0.506
56 | Cc1cc(NC(=O)CSCC(=O)Nc2nc3c(C)cccc3s2)no1 | 6.68
57 | CCc1cc(=O)oc2cc(C)cc(OC(C)C(=O)NC3CC(C)(C)NC(C)(C)C3)c12 (stereo not drawn) | 29.3
58 | CCN(CC)c1ccc(/C=N/NC(=O)CN2CCCc3ccccc32)cc1 | 2.55
59 | COc1ccc2nc(-c3ccc(N)cc3)[nH]c2c1 | 10.4
60 | O=C(NNS(=O)(=O)c1ccc(F)cc1)C1CCN(Cc2cccc(F)c2)CC1 | 5.01
61 | O=C(CCCn1c(SCc2cc(=O)n3cc(Cl)ccc3n2)nc2ccccc2c1=O)NCC1CCCO1 (stereo not drawn) | -10.1
62 | O=C(NC1CCCc2ccccc21)c1ccc([N+](=O)[O-])cc1 (stereo not drawn) | -10.3
63 | Cc1ccc(-c2nc(N/N=C/c3cccnc3)c3ccccc3n2)cc1 | 10.3
64 | Cn1c(-c2ccc(F)cc2)cnc1NCc1cccc(F)c1 | -7.72
65 | COc1ccccc1Nc1ccc(Nc2ccccc2OC)nn1 | 10.2
66 | O=C(CCN1C(=O)NC2(CCCC2)C1=O)Nc1ccc(-c2nc3ccccc3s2)cc1 | 12.9
67 | Cc1nc2ccccn2c1C(=O)Nc1ccc2c(c1)OCCO2 | 1.92
68 | O=C1c2ccccc2C(=O)C1c1ccc(Br)cc1 | 17.3
69 | COc1cc(C(CCN2CCN(c3ccccc3)CC2)c2c(OC)cc(OC)c3c(C)cc(=O)oc23)cc(OC)c1OC (stereo not drawn) | 9.23

Row | Compound | hERG current change (%, negative = inhibition) at 1uM [%]
70 | CN1CCN(C(=O)c2ccccc2NC(=O)CCN2C(=O)c3ccccc3C2=O)CC1 | 7.75
71 | Cc1ccccc1NC(=S)NNC(=O)c1cccc(Br)c1 | 1.6
72 | CC(C(=O)Nc1ccccc1Br)N1c2cccc3cccc(c23)S1(=O)=O (stereo not drawn) | 18.5
73 | CC(Oc1cccc(Cl)c1)C(=O)NCc1ccc(S(N)(=O)=O)cc1 (stereo not drawn) | 14.4
74 | CCCOc1ccc(-c2nc(OC)c3ccccc3n2)cc1 | 2.6
75 | CCCn1nnc(NC(=S)NC(=O)Cc2ccccc2)n1 | 10
76 | O=C(CN(Cc1ccco1)S(=O)(=O)c1cccs1)Nc1ccccc1C(F)(F)F | 5.34
77 | O=C(O)CSCC(=O)N1CCc2c([nH]c3ccccc23)C1C(F)(F)F (stereo not drawn) | 9.86
78 | O=C(C1CCC(CNc2c(N3CCCCC3)c(=O)c2=O)CC1)N1CCCC1 (stereo not drawn) | 2.53
79 | Cl.OCCNc1nc(N2CCCCC2)nc2ccccc12 | -18.4
80 | CCc1ccc(NS(=O)(=O)c2ccc(C)c(C(=O)N3CCOCC3)c2)cc1 | 15.8
81 | COc1cccc(=O)c2c(C)n(CC(=O)c3ccccc3)c(C)c12 | 5.6
82 | O=C1NCCCC1C(=O)NCCN1C(=O)CCC1=O (stereo not drawn) | 2.25
83 | O=[N+]([O-])c1cnn(-c2nc(-c3ccccc3)cc(C(F)(F)F)n2)c1 | 10.7
84 | C/C(=N\S(=O)(=O)c1ccc(C)cc1)NC(=S)Nc1ccccc1 | 4.4
85 | COc1ccc(-c2cn(-c3ccc(SC(F)F)cc3)c3[n+]2CCC3)cc1OC.[Br-] | -27
86 | CCOC(=O)c1c(NC(=O)/C=C/c2ccc(C)o2)sc(C)c1C | 4.18
87 | CC(=O)Nc1ccc(-c2csc(NC(=O)CC(NC(C)=O)c3ccccc3)n2)cc1 (stereo not drawn) | 16.7
88 | O=C(CN1CCN(c2cccc(Cl)c2)CC1)NC1CCCc2ccccc21 (stereo not drawn) | 13.2
89 | O=C(CCNC(=O)c1ccc(Cl)cc1)Nc1ncccc1O | 9.12
90 | O=C(CCc1ccccc1)NNC(=O)C1CCCCC1 | 5.85
